Laboratory results published in PubChem BioAssay AID624417 (National Center for Advancing Translational Sciences (NCATS), 2012).
Out of some 410,000 compounds screened, about 6,400 (1.6%) were called active. The call rests on the fitted dose curve; in most records, active means well fitted inhibition curve with a large enough effect; inconclusive means small, poorly fitted or top-dose-only effect; inactive means no such curve, though single readings can be large or run the other way. Inconclusive means that the source gave no clear call. A potency beside an inconclusive call is a rough fit, not a confirmed value.

These compounds were tested against Glucagon-like peptide 1 receptor (Homo sapiens) (UniProt P43220) (assay: qHTS of GLP-1 Receptor Inverse Agonists (Inhibition Mode)). Settings: HEK293 GLP-1R CRE-luciferase, luminescence, 24 h, GLP-1R form is constitutively active; activity change, negative = inhibition: at 38.3 µM (top of the series) unless noted.
Chain of UniProt P43220 (P43220 whole entry, looked up): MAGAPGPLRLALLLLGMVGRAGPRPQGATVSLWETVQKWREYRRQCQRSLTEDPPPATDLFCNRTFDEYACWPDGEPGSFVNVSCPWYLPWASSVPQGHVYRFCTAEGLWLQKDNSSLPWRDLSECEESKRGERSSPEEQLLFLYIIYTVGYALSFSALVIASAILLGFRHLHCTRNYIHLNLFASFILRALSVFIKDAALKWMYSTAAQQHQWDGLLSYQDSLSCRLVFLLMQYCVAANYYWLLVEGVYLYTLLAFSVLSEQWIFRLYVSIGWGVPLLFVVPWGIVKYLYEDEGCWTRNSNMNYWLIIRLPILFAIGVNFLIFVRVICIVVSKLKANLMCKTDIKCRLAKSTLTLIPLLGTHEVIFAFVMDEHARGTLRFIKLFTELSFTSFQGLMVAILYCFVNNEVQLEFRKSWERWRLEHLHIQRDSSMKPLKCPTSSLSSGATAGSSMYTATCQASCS
How it was run: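 Stable HEK293 clone (constitutively active GLP-1R + cAMP-response luciferase); 200 cells/uL plated, 12 h pre-culture, compound 24 hr, 37 deg C/5% CO2; detection reagent 12 min RT; luminescence.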
Further: nearly all actives have a fitted effect of over 55% in size.
On the % scale 0 is the no-effect control and ±100 the full control effect; potency means the concentration at half of the fitted maximal effect; tags describe the fitted curve by direction and shape.

Potency, inconclusive:
Cc1ccc(OCC(=O)c2ccc3c(c2)CCCC3)cc1C 28.2 µM [inhibitor, single point]
CC(C)C/C(O)=C/c1nc2cc(Cl)ccc2oc1=O 11.2 µM [inhibitor, partial curve, poor fit]
CC(=O)c1sc(NC(=O)CCS(=O)(=O)c2ccc(Cl)cc2)nc1C 28.2 µM [inhibitor, single point]
CCCCC(=O)N1C/C=C\C(c2ccc(OC)cc2)N(Cc2ccc(F)cc2)C(=O)C1 (stereo unspecified) 31.6 µM [inhibitor, single point]
Cc1ccc(S(=O)(=O)N(C)CC(=O)N2CCN(Cc3ccc4c(c3)OCO4)CC2)cc1 11.2 µM [inhibitor, partial curve, poor fit]
CSc1nc2ccccc2n1Cc1cccc([N+](=O)[O-])c1 12.6 µM [inhibitor, partial curve, poor fit]
O=C(N/N=C\c1ccc(F)cc1)c1ccc(Cn2cc(Br)c([N+](=O)[O-])n2)o1 7.94 µM [inhibitor, partial curve, poor fit]
Cc1csc2nc(COC(=O)c3ccc(NC(=O)COc4ccccc4F)cc3)cc(=O)n12 11.2 µM [inhibitor, partial curve, poor fit]
CCOC(=O)c1c(-c2ccccc2)[nH]c2ccc(O)cc12 12.6 µM [inhibitor, single point]
CCOC(=O)c1ccc(NC(=S)N(CCN(C)C)Cc2cccs2)cc1 7.94 µM [inhibitor, partial curve, poor fit]
COc1cc([N+](=O)[O-])ccc1NC(=O)NNC(=O)C(C)Oc1ccc(F)cc1F (stereo unspecified) 14.1 µM [inhibitor, partial curve, poor fit]
O=C(CCl)Nc1ccc(S(=O)(=O)Nc2nccs2)cc1 10 µM [inhibitor, single point]
C/C(=C\C(=O)c1ccc(Br)cc1)NCc1ccc2c(c1)OCO2 28.2 µM [inhibitor, single point]
CC1CCC(NC(=O)Cn2c(=O)oc3cc(S(=O)(=O)N4CCCC4)ccc32)CC1 (stereo unspecified) 4.47 µM [inhibitor, full curve]
Cc1ccc(S(=O)(=O)N2CCOCC2)cc1C(=O)OCCOc1cccc(Cl)c1 10 µM [inhibitor, partial curve]

Activity change, negative = inhibition, inconclusive:
C/C(=N\NC(=O)c1cc2ccccc2cc1O)c1cccs1 -73.3% [inhibitor]
